Experimental data published in publication PMC9440446 (The Journal of Biological Chemistry, 2022).

Molecular target: human mTORC2 core complex (SpyCatcher003-mTOR, Flag-Rictor, HA-mLST8, mSin1-HA) (human, UniProt P42345;Q6R327;Q9BVC4;Q9BPZ7)
Test: SEC

B1: inactive human kinase-dead Akt1 (K179M), FLAG-tagged, dephosphorylated (enzyme)
chain: not shown
binding result: binds
